Experimental data as given in US9266939B2, “Compositions comprising natriuretic peptides and methods of use thereof” (Alexion Pharmaceuticals, Inc., priority 2010, dated 2016).

Target: T1, NPR-B (Homo sapiens, UniProt P20594)
T1 sequence (P20594 23-1047): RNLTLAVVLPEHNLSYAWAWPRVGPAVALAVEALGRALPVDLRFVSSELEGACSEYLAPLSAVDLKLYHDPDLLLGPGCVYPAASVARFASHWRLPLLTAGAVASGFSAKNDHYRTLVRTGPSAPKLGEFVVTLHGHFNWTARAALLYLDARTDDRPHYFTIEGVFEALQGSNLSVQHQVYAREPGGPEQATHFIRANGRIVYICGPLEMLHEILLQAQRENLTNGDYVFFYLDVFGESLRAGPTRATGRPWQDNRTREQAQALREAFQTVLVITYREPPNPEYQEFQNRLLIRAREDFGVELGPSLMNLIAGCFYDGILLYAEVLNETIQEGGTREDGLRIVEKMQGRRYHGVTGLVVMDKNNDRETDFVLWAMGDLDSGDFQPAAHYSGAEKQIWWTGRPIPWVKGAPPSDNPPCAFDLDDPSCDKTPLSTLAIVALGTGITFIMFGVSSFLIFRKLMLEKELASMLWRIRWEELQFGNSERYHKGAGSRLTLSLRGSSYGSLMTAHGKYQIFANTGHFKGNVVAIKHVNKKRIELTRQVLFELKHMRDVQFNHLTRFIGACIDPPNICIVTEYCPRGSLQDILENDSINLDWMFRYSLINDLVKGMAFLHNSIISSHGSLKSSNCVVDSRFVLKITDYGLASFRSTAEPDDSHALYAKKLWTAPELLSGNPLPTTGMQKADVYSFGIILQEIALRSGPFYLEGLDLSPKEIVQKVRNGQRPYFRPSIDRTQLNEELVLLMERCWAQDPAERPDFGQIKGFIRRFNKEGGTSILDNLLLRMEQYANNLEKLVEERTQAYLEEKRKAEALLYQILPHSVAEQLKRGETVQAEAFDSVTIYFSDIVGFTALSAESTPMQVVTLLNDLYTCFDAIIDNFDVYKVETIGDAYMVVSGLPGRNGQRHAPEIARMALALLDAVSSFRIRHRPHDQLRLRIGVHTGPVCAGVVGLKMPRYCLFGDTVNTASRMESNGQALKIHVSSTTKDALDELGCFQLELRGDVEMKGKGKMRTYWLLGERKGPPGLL
Assay: Whole cell guanylyl cyclase (cGMP) assay, NPR-B
Format: cell-based
Design: expressed in transfected cells
Procedure: HEK293S cells in a semi-confluent 75 cm2 flask are transfected with 30 μg of plasmid DNA coding for the appropriate receptor, e.g., human NPR-B or NPR-A, using Lipofectamine-2000CD. Alternatively, a stable polyclonal HEK293 S cell line expressing either human NPR-B or NPR-A was used. 24 hours after transfection, cells are trypsinized and plated into 48-well plates at 1×10^5 cells/well. Guanylyl cyclase assay is carried out 24 hours post-plating. Cells are first incubated for 30 minutes at 37° C. with serum-free DMEM medium. Then, they are incubated in triplicate with or without increasing concentrations of reference or test proteins in serum-free DMEM supplemented with 1 mM IBMX and 0.5% BSA, at 37° C. for 30 minutes to one hour. CNP serves as a suitable reference for NPR-B, while ANP is a suitable reference for NPR-A. Finally, cells are washed with ice-cold PBS and solubilized in lysis buffer from Catchpoint cGMP kit (Molecular devices). Concentrations of cGMP in lysate are determined using the Catchpoint cGMP kit. Dose-response curves are analysed with GraphPad Prism 5 software using non-linear regression with four-parameter logistic equation.

[1] = NC2st variants, NPR-B whole cell cGMP assay

B1: NC2B: NC2st without the sequence N-terminal to the Fc domain; SEQ ID NO: 504 (protein)
chain: [not shown - human IgG1 Fc]GGGGSGGGGSGGGGSGGLSKGCFGLKLDRIGSMSGLGC
modifications: Synthetic Construct (NC2B (w/o sig. seq.))
- EC50 (NC2st variants without signal sequence, NPR-B whole cell cGMP assay): 818 nM
- % Efficiency [1]: 88%
- EC50 Ratio versus CNP22 [1]: 55.7
- Rescue Ratio versus CNP22 [1]: 79 ± 22
- Rescue range (concentration producing cGMP as 2.4 nM (lower) and 14 nM (high) CNP22, X: cannot be determined): 187 to 1134 nM
